# Test results reported in the BET-seq Pho4 binding data (Le et al. 2018).
# This is one part of the list. These are noisy estimates, calculated here from bound and input reads.
# Target: T1, Pho4 (S. cerevisiae) (UniProt P07270)
# T1 sequence: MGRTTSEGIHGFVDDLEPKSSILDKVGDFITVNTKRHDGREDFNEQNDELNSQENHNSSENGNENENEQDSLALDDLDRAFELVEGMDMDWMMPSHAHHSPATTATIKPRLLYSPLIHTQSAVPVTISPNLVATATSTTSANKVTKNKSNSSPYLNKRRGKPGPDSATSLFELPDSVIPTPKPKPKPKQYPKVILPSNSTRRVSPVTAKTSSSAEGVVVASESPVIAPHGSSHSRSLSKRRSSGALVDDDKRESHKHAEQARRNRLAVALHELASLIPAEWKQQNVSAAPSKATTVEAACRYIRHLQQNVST
# Assay: relative binding free energy (BET-seq); higher = weaker binding
# Conditions: reference: library average
row,Sequence,relative binding free energy [kcal/mol]
1,TTGTACACGTGTGCAT,0.02
2,AGTAGCACGTGTGGGT,-0.04
3,GGTCTCACGTGGTTTT,0.31
4,AGCTTCACGTGTTTGG,0.12
5,GAAATCACGTGAGTGG,0.32
6,GGGGCCACGTGTTATG,0.07
7,TGGGACACGTGTGAAT,0.08
8,TGTTACACGTGGCAGG,-0.04
9,GGTGCCACGTGGTAAT,-0.05
10,GTTGGCACGTGAGTCA,0.14
11,TTGCTCACGTGTATTT,0.11
12,TATATCACGTGTGGAT,0.28
13,CTATTCACGTGGTCGT,0.11
14,TGCGGCACGTGGGTAC,-0.2
15,CGAGTCACGTGGCGTG,0.04
16,TTATGCACGTGCTTTT,-0.17
17,GTCAGCACGTGGTAGG,-0.09
18,GGATGCACGTGTTTAG,-0.06
19,GGAGTCACGTGTTGTT,0.17
20,GGGAGCACGTGTTCGT,-0.01
21,AGGGACACGTGTTGCA,-0.01
22,TGGGCCACGTGCGGGC,-0.18
23,GTATTCACGTGTGAGG,0.38
24,TCGTACACGTGAGGTA,0.26
25,AAAAGCACGTGGGTGC,-0.19

row,Sequence,relative binding free energy [kcal/mol]
1,AAGGGCACGTGTTTTT,-0.1
2,CTTATCACGTGGAATG,0.14
3,TCTTTCACGTGAGTGT,0.35
4,TCTGACACGTGGATGT,-0.04
5,TTATGCACGTGTGAAT,0.09
6,TTCTTCACGTGTCGGG,0.16
7,TTGCACACGTGGGTAT,-0.03
8,ACTAGCACGTGGGTGT,-0.22
9,CGCGACACGTGTGGTG,0.08
10,TGGAGCACGTGCTTAG,-0.17
11,AGGGCCACGTGATGTA,0.16
12,GGTTTCACGTGGTTGC,0.27
13,AGGGTCACGTGTTAGC,0.26
14,GAAATCACGTGATGTT,0.27
15,GTGATCACGTGCTGGT,0.2
16,GGTTTCACGTGAGAAT,0.44
17,CTGTACACGTGGTTTG,-0.05
18,AAAGGCACGTGTCTGT,-0.14
19,AATATCACGTGTCGGG,0.28
20,ATTTTCACGTGGGGGA,0.27
21,CCTTTCACGTGTAGGG,0.14
22,CGGTGCACGTGTTTTT,0.11
23,TGTGCCACGTGGGTCT,-0.26
24,CGGGCCACGTGTGTGC,-0.07
25,TTTAACACGTGACATG,0.2

row,Sequence,relative binding free energy [kcal/mol]
1,CCGGGCACGTGGGATG,-0.1
2,CGTTTCACGTGGATGA,0.28
3,AGTGCCACGTGTTGTG,-0.06
4,TGAGGCACGTGGGGTG,-0.21
5,GTTTCCACGTGTTTCT,0.16
6,TGAGACACGTGTTGGC,-0.09
7,TCTATCACGTGTGTAA,0.13
8,GAAGGCACGTGTTGTG,0
9,CTTGGCACGTGTATTT,-0.09
10,AGTCGCACGTGGTAAT,-0.11
11,GATTACACGTGTGGTT,0.27
12,TGTTTCACGTGTGATG,0.34
13,TTTGACACGTGTAGCT,0.08
14,TTTTACACGTGGGACA,0.05
15,ATTGACACGTGCATTG,0.1
16,TGTTTCACGTGGGCCT,0.14
17,ATGAGCACGTGAGGGC,0.18
18,ATAGACACGTGTGATG,0.03
19,GGTGTCACGTGTATCT,0
20,GTTTGCACGTGCATCT,0.07
21,GGTGTCACGTGGCTGC,0
22,GGGTGCACGTGGAGGA,0.01
23,TGAATCACGTGGTCGT,0.02
